{
  "source": "PubChem BioAssay AID588855",
  "about": "(National Center for Advancing Translational Sciences (NCATS), 2011)",
  "note": "The campaign covered roughly 410,000 compounds. About 5,000 (1.2%) were called active. Inconclusive results, whose numbers are uncertain, are shown with a selection of clear calls. Calls come from the whole dose curve; as a rule, active = well fitted inhibition curve with a large enough effect; inconclusive = small, poorly fitted or top-dose-only effect; inactive = no such curve, though single readings can be large or run the other way. Potencies beside an inconclusive call are fits to weak or partial responses and may not hold up. % is set by controls: 0 for no effect and ±100 for the full control effect; potency is the fitted concentration of half-maximal effect; tags give direction and shape of the fitted curve.",
  "data": [
    {"test": "qHTS for Inhibitors of TGF-b; note: nearly all actives have a fitted effect of over 65% in size", "conditions": "HepG2 CAGA-GFP TGF-b/SMAD3 reporter, GFP fluorescence, 18 h, TGF-beta stimulated, 500 pg/mL final; series mostly up to 46.1 µM; activity, negative = inhibition: at the top concentration", "summary_of_the_method": "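Using HEPG2 CAGA-GFP reporter cells at 1000 cells/well, we pinned test compounds, stimulated with recombinant TGF-beta (500 pg/mL final) and measured total well GFP after 18 h.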", "values": [
      {"smiles": "COc1cc(NC(=O)Nc2nc(C(N)C3CCCCC3)cs2)cc(OC)c1OC", "note": "(stereo not given)", "Potency": "inconclusive: 15.8 µM [inhibitor, single point]"},
      {"smiles": "O=C(NCCCn1ccnc1)c1[nH]c(C(F)(F)F)nc1-c1ccccc1", "Potency": "inconclusive: 35.5 µM [inhibitor, single point]"},
      {"smiles": "O=C(CN1C(=O)c2ccccc2S1(=O)=O)NCc1cccnc1", "Potency": "inconclusive: 35.5 µM [inhibitor, single point]"},
      {"smiles": "CCOc1ccccc1N1CC(c2nc3ccccc3n2CCOc2ccccc2)CC1=O", "note": "(stereo not given)", "Potency": "inconclusive: 35.5 µM [inhibitor, single point]"},
      {"smiles": "CCc1ccc(CNc2ncnc3c2nc2n3CCCC2)cc1", "Potency": "inconclusive: 1.58 µM [inhibitor, single point]"},
      {"smiles": "COc1cc(C(=O)Oc2ccc3ccc(O)cc3c2)cc(OC)c1OC", "Potency": "inconclusive: 15.8 µM [inhibitor, single point]"},
      {"smiles": "CC(NC(=O)COC(=O)c1cccc(S(=O)(=O)N2CCCC2)c1)c1ccccc1", "note": "(stereo not given)", "activity, negative = inhibition": "inactive: -0.601%"},
      {"smiles": "CCCc1n[nH]c(=O)c2c1nnn2Cc1ccccc1F", "activity, negative = inhibition": "inactive: 7.22%"},
      {"smiles": "Cc1ccc(OCC(O)CNC(C)c2ccccc2)cc1C", "note": "(stereo not given)", "Potency": "inconclusive: 35.5 µM [inhibitor, single point]"},
      {"smiles": "CC(=O)c1ccc(CCCCCCCCCC(=O)O)s1", "Potency": "inconclusive: 35.5 µM [inhibitor, single point]"},
      {"smiles": "C[C@@H]1C(c2cccc(Cl)c2)=NN(c2ccccc2)[C@H]1C(=O)N1CCOC1=O", "Potency": "active: 20 µM"},
      {"smiles": "O=C(c1ccc2c(c1)N(Cc1ccc(Cl)cc1)C(=O)c1ccccc1S2=O)N1CCOCC1", "note": "(stereo not given)", "Potency": "inconclusive: 14.1 µM [inhibitor, single point]"},
      {"smiles": "CCOC(=O)c1ccc(N2C(=O)CC(Nc3ccc(CCO)cc3)C2=O)cc1", "note": "(stereo not given)", "Potency": "inconclusive: 3.16 µM [inhibitor, partial curve, poor fit]"},
      {"smiles": "COc1ccc(C(c2nnnn2Cc2ccccc2)N2CCN(C/C=C/c3ccccc3)CC2)cc1", "note": "(stereo not given)", "Potency": "inconclusive: 35.5 µM [inhibitor, single point]"},
      {"smiles": "CCOC(=O)Cn1c(=NC(=O)C(C)C)sc2c(C)cc(C)cc21", "activity, negative = inhibition": "inactive: 0.999%"},
      {"smiles": "CCN(CC)S(=O)(=O)c1ccc(C)c(NC(=O)COC(=O)CN2C(=O)NC(C)(C)C2=O)c1", "Potency": "inconclusive: 35.5 µM [inhibitor, single point]"},
      {"smiles": "Cc1ccc(S(=O)(=O)Nc2ccc3c(c2)C(=O)c2ccccc2-3)cc1", "Potency": "inconclusive: 35.5 µM [inhibitor, single point]"},
      {"smiles": "CCOC(=O)CSc1nc2ccc(C)cc2n2cnnc12", "Potency": "inconclusive: 25.1 µM [inhibitor, single point]"},
      {"smiles": "COc1ccc(Nc2nc(-c3ccc(C)cc3)nc3ccccc23)c(OC)c1", "Potency": "inconclusive: 25.1 µM [inhibitor, partial curve, poor fit]"},
      {"smiles": "CCOc1ccc(-c2nonc2NC(=O)COc2c(C)cc(C)cc2C)cc1OCC", "Potency": "inconclusive: 6.31 µM [inhibitor, single point]"},
      {"smiles": "O=S(=O)(N[C@H]1C[C@@H](NS(=O)(=O)OCC(Cl)(Cl)Cl)C2CCCCC21)OCC(Cl)(Cl)Cl", "note": "(stereo not given in full)", "Potency": "inconclusive: 35.5 µM [inhibitor, partial curve, poor fit]"},
      {"smiles": "COc1ccc(CN(C)Cc2nc(Cc3cccc(F)c3)no2)c2cccnc12", "Potency": "inconclusive: 1.12 µM [inhibitor, partial curve, poor fit]"},
      {"smiles": "Cc1ccc2[nH]c(=O)c(CN(Cc3ccc4c(c3)OCO4)Cc3nnnn3Cc3ccco3)cc2c1", "Potency": "inconclusive: 14.1 µM [inhibitor, single point]"},
      {"smiles": "CC(C)=C1CCC(C)CC1=NNC(N)=S", "note": "(stereo not given)", "Potency": "inconclusive: 10 µM [inhibitor, partial curve]"},
      {"smiles": "COc1cc(NC(=O)CN(c2ccc(C)cc2)S(=O)(=O)c2cccc3nonc23)cc(OC)c1", "Potency": "inconclusive: 1.78 µM [inhibitor, full curve, poor fit]"},
      {"smiles": "CCOc1cc(CNc2ccc(O)cc2)ccc1OCc1ccc(Cl)cc1Cl", "Potency": "inconclusive: 35.5 µM [inhibitor, single point]"},
      {"smiles": "CCc1cccc(NC(=O)CSC2=Nc3ccccc3N=C(c3ccc(F)cc3)C2)c1", "Potency": "inconclusive: 3.98 µM [inhibitor, full curve, poor fit]"},
      {"smiles": "Cc1ccc2[nH]c(-c3cccc(F)c3)cc(=O)c2c1", "Potency": "inconclusive: 3.98 µM [inhibitor, full curve]"},
      {"smiles": "CCc1ccc(-c2csc3[n+]2CCN3C(C)=O)cc1", "activity, negative = inhibition": "inactive: 25.9%"},
      {"smiles": "O=C(CSc1nnc(CNC(=O)c2cccc(F)c2)n1-c1ccccc1)Nc1ccccc1F", "Potency": "inconclusive: 10 µM [inhibitor, single point]"},
      {"smiles": "COc1ccc(Nc2ncc(C(=O)O)c3ccccc23)cc1", "activity, negative = inhibition": "inactive: -2.47%"},
      {"smiles": "COCCNc1nnc(SCC(=O)Nc2cc(-c3ccccc3)nn2-c2ccccc2)s1", "Potency": "inconclusive: 35.5 µM [inhibitor, single point]"},
      {"smiles": "COc1ccc(NC(=O)Cn2c(SCc3cc(C)ccc3C)nc3ccncc32)c(OC)c1OC", "Potency": "inconclusive: 25.1 µM [inhibitor, single point]"},
      {"smiles": "COc1ccc2c(CNCc3cccs3)c(C(=O)O)n(Cc3ccccc3)c2c1", "Potency": "inconclusive: 6.31 µM [inhibitor, single point]"},
      {"smiles": "Cc1c(CCNC(=O)c2ccc(Br)o2)sc2nc(-c3ccc(F)cc3)nn12", "Potency": "inconclusive: 15.8 µM [inhibitor, single point]"},
      {"smiles": "S=c1[nH]nc(C2CCCCC2)n1/N=C/c1cccc(Cl)c1Cl", "Potency": "inconclusive: 22.4 µM [inhibitor, single point]"},
      {"smiles": "Cc1cc(Nc2ccc3c(c2)OCCO3)c2cc(Cl)ccc2n1", "Potency": "inconclusive: 35.5 µM [inhibitor, single point]"},
      {"smiles": "CCCc1ccc(C(O)c2ncc(-c3cccc(C)c3)[nH]2)cc1", "note": "(stereo not given)", "Potency": "inconclusive: 15.8 µM [inhibitor, single point]"},
      {"smiles": "CCOc1ccc(Sc2cc(C(=O)NC(C)c3ccccc3)c3ccccc3n2)cc1", "note": "(stereo not given)", "activity, negative = inhibition": "inactive: -16.5%"},
      {"smiles": "Cc1ccc(Cl)cc1N1CCN(Cc2nc3c(c(=O)[nH]c(=O)n3C)n2Cc2ccccc2F)CC1", "Potency": "inconclusive: 35.5 µM [inhibitor, single point]"}
    ]}
  ]
}
